From a compilation of properties of binary mixtures (doi:10.1057/9780230359512_28)
Some of these densities may be calculated back from excess volumes.

Assay: xn = mol fraction of the nth substance listed
Conditions: 101.3 kPa

CCCCCC[n+]1ccn(C)c1.O=S(=O)([N-]S(=O)(=O)C(F)(F)F)C(F)(F)F + CC(C)=O
mass density [kg/m3]
Conditions | 288.15 K | 293.15 K | 298.15 K
x2 = 0 | 1381.1 | 1376.5 | –
x2 = 0.0517 | 1375.5 | 1370.9 | 1366.2
x2 = 0.1039 | 1368.9 | 1364.2 | –
x2 = 0.1657 | 1360.8 | 1356 | –
x2 = 0.2655 | 1345.1 | 1340.4 | 1335.7
x2 = 0.3641 | 1325.7 | – | 1316.2
x2 = 0.4927 | 1293.3 | 1288.5 | 1283.7
x2 = 0.5924 | 1258.7 | 1253.8 | 1248.9
x2 = 0.6842 | – | 1211.1 | 1206.2
x2 = 0.8083 | 1127.3 | 1122.2 | 1117
x2 = 0.8954 | 1025.1 | 1019.8 | 1014.5
x2 = 0.9472 | 933.8 | 928.3 | 922.9

CCCCCC[n+]1ccn(C)c1.O=S(=O)([N-]S(=O)(=O)C(F)(F)F)C(F)(F)F + CO
mass density [kg/m3]
Conditions | 298.15 K | 313.15 K
x1 = 0.0198 | 871 | 857
x2 = 0 | – | 1358.2
x2 = 0.0538 | 1367.7 | 1353.9
x2 = 0.1081 | – | 1349.3
x2 = 0.1812 | 1356.2 | 1342.3
x2 = 0.2739 | 1345.9 | 1331.9
x2 = 0.3962 | – | 1314.3
x2 = 0.4824 | 1312.1 | –
x2 = 0.5846 | 1286.2 | –
x2 = 0.6882 | 1248 | 1233.5
x2 = 0.7994 | 1181.3 | 1166.7
x2 = 0.8991 | 1068.5 | 1053.8
x2 = 0.9495 | 966 | –

CCCCCC[n+]1ccn(C)c1.O=S(=O)([N-]S(=O)(=O)C(F)(F)F)C(F)(F)F + CCO
mass density [kg/m3]
Conditions | 298.15 K | 313.15 K | 328.15 K
x2 = 0 | – | 1358.2 | 1344.5
x2 = 0.0649 | 1364.6 | 1350.8 | 1337.2
x2 = 0.0942 | 1361.1 | 1347.3 | 1333.6
x2 = 0.1816 | 1349.4 | 1335.6 | 1321.8
x2 = 0.2856 | – | – | 1304.9
x2 = 0.3939 | 1310.8 | 1296.8 | –
x2 = 0.4966 | 1284.1 | 1270 | 1255.9
x2 = 0.5943 | – | 1236.6 | –
x2 = 0.6976 | – | 1187.6 | –
x2 = 0.8045 | – | 1111.2 | –
x2 = 0.847 | 1082.7 | 1068.5 | 1054.2
x2 = 0.9017 | 1010.2 | 996.2 | –
x2 = 0.9482 | – | 911.4 | –

CCO + CCCCCC[n+]1ccn(C)c1.O=S(=O)([N-]S(=O)(=O)C(F)(F)F)C(F)(F)F
x1 = 1
Conditions | mass density [kg/m3]
298.15 K | 785.2
313.15 K | 772.2
328.15 K | 758.7

CCCCCC[n+]1ccn(C)c1.O=S(=O)([N-]S(=O)(=O)C(F)(F)F)C(F)(F)F + CC(C)O
mass density [kg/m3]
Conditions | 298.15 K | 313.15 K | 328.15 K
x2 = 0 | 1371.9 | 1358.2 | 1344.5
x2 = 0.0621 | 1362.6 | 1348.9 | 1335.2
x2 = 0.0926 | 1357.8 | 1344 | 1330.3
x2 = 0.1725 | 1343.9 | – | 1316.4
x2 = 0.2926 | 1319.1 | 1305.2 | 1291.4
x2 = 0.38 | 1297 | 1283.1 | 1269.2
x2 = 0.5107 | 1255.4 | 1241.3 | 1227.2
x2 = 0.6078 | 1214.3 | 1200.1 | 1185.8
x2 = 0.7028 | 1161.6 | 1147.4 | 1133
x2 = 0.8064 | 1081 | – | 1052.4
x2 = 0.9052 | 964.8 | 951 | 936.7
x2 = 0.9473 | 895.5 | 882 | 867.8
